Binding signal data for 22 molecules are collected here from article PMC12136788.

This is one part of the list.

T1: UNK ZnF1-3 (human, UniProt Q9C0B0 31-174)
T1 sequence: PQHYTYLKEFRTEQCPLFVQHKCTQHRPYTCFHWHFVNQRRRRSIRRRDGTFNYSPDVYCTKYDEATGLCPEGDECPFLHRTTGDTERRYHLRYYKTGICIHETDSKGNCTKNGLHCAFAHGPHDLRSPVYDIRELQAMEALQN

B1: chr4:140556289:140556290:+_ENSMUSG00000036622_ENSMUST00000037055|mus_mus|mus_mus_mus_hu_False|28_58 (ssRNA)
RNA: GGGAGUUCUACAGUCCGACGAUCGAUGGAGCUCACCAGGCCCCCUUUUGCCGUGCAGAACCCUGUGCGGGUCACCACUGCUAGCACGUGCGGUCCCACAUAGGCCCGGGCCUGCAGGAUGAGGGUCCCGCAGAAGAGUGUGUGCAACAGAGGAUUGAGCAUCA
B2: 128607413_128610288_2715_CDS_ENSG00000064419_ENST00000265388|human|control|control (ssRNA)
RNA: GGGAGUUCUACAGUCCGACGAUCUUUUAAGGAAUUUUCUAACCAUCGACAAAAAGUCGGUCUGUCAACCUGCAUGAUCUCCCAGAGCACUUCAGCCACAUCUGGUAGGGUAUAGGGGGGGAGGCAAAAGCAGCAGGUGUGCAGCAACAGAGGAUUGAGCAUCA
B3: chr8:93522421:93522422:+_ENSMUSG00000056608_ENSMUST00000048665|mus_mus|motif|central (ssRNA)
RNA: GGGAGUUCUACAGUCCGACGAUCAGAUUGGAUCAUUGCUUGCAGAUGAAAAUCAGAGGCAGAUGGAUUGUAUGUAUCUCGGAAUUCUCCAAGUAUUUUCUCCUCAGCACCUUUGAUAAGAUACGGAUGAUUGCAGCAUUUCCUCAACAGAGGAUUGAGCAUCA
B4: chr8:3496845:3496846:+_ENSMUSG00000047264_ENSMUST00000061508|mus_mus|FALSE|FALSE (ssRNA)
RNA: GGGAGUUCUACAGUCCGACGAUCAACAAGAUCGGGACUAGAGAUAGAUCCUGAGUGGGUCUGAAGGAUGGGAUUUUGGAGUGAACCCAGUACAGAAGUAGGGGCAGAACUUCGGGCAGAGCUGGCUCCAGAACUGAGGCCCAGCAACAGAGGAUUGAGCAUCA
B5: chrX:102931600:102931601:-_ENSG00000123562_ENST00000441076|hu_hu|FALSE|FALSE (ssRNA)
RNA: GGGAGUUCUACAGUCCGACGAUCGUCCUCAACAAGCCAUGGUUUUAAUUCUUCAGGAAUCUUCACUUUAACCUCCAUUCUAUUCUUAAACGCCUCCUCACUUUCAACAGUGGGGUCUGCCCGGGCCCUUUUCUUCCGAGGGGGCAACAGAGGAUUGAGCAUCA
B6: chr10:75834556:75834557:+_ENSG00000035403_ENST00000372755|perfect_dup|motif|central (ssRNA)
RNA: GGGAGUUCUACAGUCCGACGAUCAUUAAUUUCAGCACUCAUUUUUUCUACAGUAAAAUUGCGAUUUUUUAAAGCUUCCUCGGUGCCUUGGUUUUUUGAGUUUUUAGUUGUUACAAAAAUCUUCAUAGCUGAAAUGAGAACUGGCAACAGAGGAUUGAGCAUCA
B7: chr16:20502619:20502620:+_ENSMUSG00000003235_ENSMUST00000003320|mus_hu|FALSE|FALSE (ssRNA)
RNA: GGGAGUUCUACAGUCCGACGAUCGUCAGCACAGACAGCUGAGUACAUGUGUAGGUUGGAGACACGGGCACCAUAUUCCUUAGCUGUUACGUGCAUGUGGAUCUGGUUCCCUAGGAUCUCCUCAUUCACUAAGAGACCUCGCACCAACAGAGGAUUGAGCAUCA
B8: chr4:11413230:11413231:+_ENSMUSG00000040720_ENSMUST00000059914|mus_mus|FALSE|FALSE (ssRNA)
RNA: GGGAGUUCUACAGUCCGACGAUCAAACGAACCACAUCUAUAUGAGAACUUUGCUCAGCGCUCGGAUGUUUAAAAGUAUCUAAAAAUAGCAGCUCCAUAGACGAGUCCACCGCCAUGUCUGCCGCGGGCGGGGGACCGGGAGAUCAACAGAGGAUUGAGCAUCA
B9: chr16:21666878:21666879:+_ENSG00000197006_ENST00000396014|hu_hu|motif|central (ssRNA)
RNA: GGGAGUUCUACAGUCCGACGAUCUUUAAAAACAUUCCUUUACACACUACAAAGAAAUAAUUAGUAUUUUGGCUUUUUAAAUUCCGGCAUGAUAUUUAGAAUGGCGGUCCCCAAGGGUCCUCCCUUCACGUAAUUGUGAACACACAACAGAGGAUUGAGCAUCA
B10: chr2:75765252:75765253:+_ENSMUSG00000042410_ENSMUST00000047232|mus_hu|motif|central (ssRNA)
RNA: GGGAGUUCUACAGUCCGACGAUCAGUGAUUCAAAGUAAUCAUUUCACUUUAAUAUCCAGGUUUGAAUGUACAAAUGCUUGCGGAAUGUGAUUAAUGUUCUCAUUAUUUAAGAAACAGGAUAUUUCAAACUUUUGAUUAUGGUACAACAGAGGAUUGAGCAUCA
B11: chr4:17845017:17845018:+_ENSG00000109805_ENST00000514176|hu_mus|hu_hu_hu_mus_False|28_88 (ssRNA)
RNA: GGGAGUUCUACAGUCCGACGAUCGCUCUCUUAACUUGUAUCUUCAUGAGAAAUUGGUGCAAGGUUAAGUUUACUUUUCUGUAGCGCAGCUGUUUUGGCUCGUCUGGUAGUCUCAUCCUUCAUUUCUGAUGGUGGUUCAUGAUCCAACAGAGGAUUGAGCAUCA
B12: 31824166_31824376_896_CDS_ENSMUSG00000021916_ENSMUST00000168584|mouse|control|control (ssRNA)
RNA: GGGAGUUCUACAGUCCGACGAUCCUGAUAAAAUACGAUAAGCAGAGGAGGUGUGGUGAUGCUGCCUGCCAGAGUUCUGCUGUAUAAUCCCUCUUCUACAUUGAGCUUCAUCCAUUUUUCCAACUGGUUAGUUACAUUCUGUCUCAACAGAGGAUUGAGCAUCA
B13: chr4:108167797:108167798:+_ENSMUSG00000034610_ENSMUST00000043368|mus_mus|motif|central (ssRNA)
RNA: GGGAGUUCUACAGUCCGACGAUCCUCCACAAUGUCCUGGCGGAUUCUGAGGUCAUCAUCUGUUAUUCCUUGUUCUUUUGCGGACUCAACAACUGCAACACUUAAAGCAGCCAAGUGAGCAGAGGAAGGAGAUGGAAGAGACCGCAACAGAGGAUUGAGCAUCA
B14: chr2:48026839:48026840:+_ENSG00000116062_ENST00000540021|hu_hu|hu_hu_hu_mus_False|8_28 (ssRNA)
RNA: GGGAGUUCUACAGUCCGACGAUCAUAGUGAGCCACUAGCGUCCUAAAUCUGGAACAGUGGCGGUCAUCCGAAAACUGGCCGAUGAAAAACUUGCCCAGUGAAGUGUCAACAAAGCAAACACCAUACGCACGAGUAUGACCAGACAACAGAGGAUUGAGCAUCA
B15: chr17:60770872:60770873:+_ENSG00000011028_ENST00000303375|hu_hu|hu_hu_hu_mus_True|58_108 (ssRNA)
RNA: GGGAGUUCUACAGUCCGACGAUCUCUCUUUUCUUUUAAAAAAAAAGACAAACAAUAAUAGCACAUUUCGAGAAUCAUCAACUACAGUAGAGGGUCCGCUUUGAGUUUUUGUUCACAUCGUCCUGCACUGGGACACGGGGACUGCAACAGAGGAUUGAGCAUCA
B16: chr7:118215947:118215948:-_ENSMUSG00000005610_ENSMUST00000162415|mus_mus|motif|central (ssRNA)
RNA: GGGAGUUCUACAGUCCGACGAUCGGUCCUUGCAAUAGACUGCCUCUGCUUGAGAACUUAGGAUGUAAUUAUUGCAUGCUGCGGAUAUUCUAUCUAAACAUUAAGGAUACUCCUAAAGUAUUUGAUGGUAGACUAUGAUUAAGACAACAGAGGAUUGAGCAUCA
B17: 59627756_59627876_917_CDS_ENSMUSG00000039585_ENSMUST00000128341|mouse|control|control (ssRNA)
RNA: GGGAGUUCUACAGUCCGACGAUCACAUAAAUCAUCAAAGUCUUUCUGUUGAGGCUGUGGAAGAAAACCCCGCUCCAUCAUCCUGCGGCGUUCUUCGGUUACCCGUAGCCAUGAUUGGAGGCUACCAUAAUGAAUUGACCCAUCCAACAGAGGAUUGAGCAUCA
B18: 121724584_121728810_673_CDS_ENSMUSG00000060227_ENSMUST00000078752|mouse|control|control (ssRNA)
RNA: GGGAGUUCUACAGUCCGACGAUCUCCACACUGAAAACUCUCGUAUUCUAGCCGCUUGACAAGGUAGGUAUUAUUUUUCCUGUAGUCUUGAAGCUGAUCUUCCUGUCGAAGAAACUCCUGACGAAGCUCAGCCAGUUGCUCCUUCAACAGAGGAUUGAGCAUCA
B19: chr5:77301437:77301438:+_ENSMUSG00000036377_ENSMUST00000163347|mus_mus|FALSE|FALSE (ssRNA)
RNA: GGGAGUUCUACAGUCCGACGAUCGUUAGGAAUGAACACCAGUGUGGGAAACGUGCAGUGAAAUAUUAGUUGCUUACAAUAACAGUAAAAAAAAAAAGUUACAUUGAUUCUUAACAGUCUGAAGGUUCAGUAUAUAUAAUACUACAACAGAGGAUUGAGCAUCA
B20: chrX:45984076:45984077:+_ENSMUSG00000031105_ENSMUST00000114936|mus_mus|FALSE|FALSE (ssRNA)
RNA: GGGAGUUCUACAGUCCGACGAUCGAAACGAACAUCGAUACUCUGGCCUUGGACUUGCAGCCGUGUUUUAGUAAGAUCCACAGGGAAAGUGCCGAACUCGGCAACAAUAGAGGCAAGGCCGCCAUACACAAAAGGUUUCCAGUUCAACAGAGGAUUGAGCAUCA
B21: 31364808_31365028_4386_CDS_ENSMUSG00000006307_ENSMUST00000006470|mouse|control|control (ssRNA)
RNA: GGGAGUUCUACAGUCCGACGAUCCAUCAAGAUGGCCACUACGUCUUCCAUGAAGCUGUGCACAGACUUAUAGAGACCUUCCUCAAAGCGCUUUCCCACAGCUUGUAAAUCACAGGGUCCUGGGUGGAGCUGCUUCCCAUCCUGCAACAGAGGAUUGAGCAUCA
B22: chr2:47387770:47387771:-_ENSG00000143933_ENST00000272298|hu_mus|hu_hu_hu_mus_True|8_108 (ssRNA)
RNA: GGGAGUUCUACAGUCCGACGAUCAAGGUUUUAGGACAAUGACAGUAAGAUAAGGGAAGAAAACAUGGAGGAAUGAAGUCCUAAUUACUAUACAUGCAUAUUUUUUGACAGUAGGGGGGGGGAACCUUACAGAUAAGAGUUACACAACAGAGGAUUGAGCAUCA

For this experiment, the target named is T1, UNK ZnF1-3. Briefly: nsRBNS (natural sequence RNA bind-n-seq); RBNS binding buffer (assumed for nsRBNS): 25 mM Tris pH 7.5, 150 mM KCl, 3 mM MgCl2, 0.01% Triton X-100, 500 ug/ml BSA, 20 U/ml SUPERase-In, 4 C; UNK is unkempt and MSI1 is Musashi-1; names of the RNAs are library labels; protein concentration not given here; high values mean tight binding.
B1 yielded a binding signal of 1.01 enrichment R.
B2: the binding signal came out at 1.12 enrichment R.
As for B3, the figure is 1.16 enrichment R; as for B4, 1.41 enrichment R.
As for B5, the figure is 1.09 enrichment R; as for B6, 0.958 enrichment R.
Consider B7, for which the binding signal came out at 0.68 enrichment R.
Regarding B8, the binding signal turned out to be 1.28 enrichment R.
B9 yielded a binding signal of 0.822 enrichment R.
As for B10, the binding signal was 0.836 enrichment R.
The molecule B11 displayed a binding signal of 0.387 enrichment R.
As for B12, the figure is 1.12 enrichment R; as for B13, 1.43 enrichment R; as for B14, 1.38 enrichment R.
The molecule B15 registered a binding signal of 1.11 enrichment R.
On to B16, for which the binding signal was 0.966 enrichment R.
With B17, the binding signal was determined as 0.833 enrichment R.
As for B18, the binding signal stood at 0.624 enrichment R.
The molecule B19 displayed a binding signal of 1.33 enrichment R.
As for B20, the figure is 1.08 enrichment R; as for B21, 1.05 enrichment R; as for B22, 2.51 enrichment R.
